Experiments:
EYES = conditions: in vivo; cited from earlier work
serum cholinesterase = serum cholinesterase (Homo sapiens, UniProt P06276); conditions: 13 workers exposed for 12 months to an average of 0.7 mg/m^3; cited from earlier work
workers = conditions: 13 workers exposed for 12 months to an average of 0.7 mg/m^3; cited from earlier work
rats = conditions: 1000 mg/kg diet; cited from earlier work
humans = conditions: 4.5 g in a single dose, usual cholinergic symptoms, no polyneuritis; cited from earlier work
carmine spider mite = conditions: adults; cited from earlier work
[1] = target: erythrocyte cholinesterase (Homo sapiens, UniProt P22303); conditions: 13 workers exposed for 12 months to an average of 0.7 mg/m^3; cited from earlier work
rosacea = assay: Topical 1% dichlorvos (DDVP) wash treatment of rosacea, Patient 1
[2] = system: Ants, aphids, mites, mealybugs, ticks, Drosophila, flies and many others; conditions: cited from earlier work

COP(=O)(OC)OC=C(Cl)Cl [dichlorvos, 2,2-dichlorovinyl dimethyl phosphate]
Eye irritation (EYES): Not known to be an eye irritant | Reduction of serum cholinesterase activity (serum cholinesterase): 60% | Results of other tests and thorough medical examinations (workers): entirely normal | Intoxication in 90-day feeding trials (rats): no intoxication | Adverse effects after ingestion (humans): few adverse effects | LT50 (carmine spider mite): 28 s | Reduction of erythrocyte cholinesterase activity [1]: approximately 35% | Resolution of clinical symptoms (rosacea; 1% DDVP wash every 3 days, entire body and face): resolution of many clinical symptoms | Pores on the nose and the nose as a whole (rosacea; Patient 1): seemed to shrink | Redness, erythema and pustules on cheeks and chin (rosacea; Patient 1): cleared | Scaling on the chin and inside the ears (rosacea; Patient 1): disappeared completely | Papules (rosacea; Patient 1, 1% solution, every 3 to 4 days, by 12 weeks): no papules are present | Return of symptoms (rosacea; Patient 1, 6 months post-treatment): had not returned | Speed and effectiveness compared with all available treatment options (rosacea; Patient 1, DDVP wash regimen): fastest acting and most effective | Itching and burning (rosacea; Patient 1, after just a few treatments): cessation | Flushing with heat, spicy foods or other rosacea flare triggers (rosacea; Patient 1, by 12 weeks): no more flushing | Long term symptoms expressed over the course of years (rosacea; Patient 1, dichlorvos treatment wash): cleared and completely disappeared | Knock-down effects [2]: Extremely fast knock-down effects | Residual control [2]: 2-3 weeks

Reference: patent US10709135B2, “Organophosphates for treating afflictions of the skin” (priority 2013, dated 2020)
